Experimental data published in publication PMC4985162.
These are yes or no findings as the source states them, for the method shown. Binding seen in cells or lysates may run through a third protein. Some results given as binding are weak or reduced against the parent protein; the word gives no strength. For some of these results: Where a sequence is shown, tags or fusion partners need not be part of it. One block for each molecule: values may come before it.

Chains of the proteins cited; added tags and fusions are not shown.
UniProt P01123: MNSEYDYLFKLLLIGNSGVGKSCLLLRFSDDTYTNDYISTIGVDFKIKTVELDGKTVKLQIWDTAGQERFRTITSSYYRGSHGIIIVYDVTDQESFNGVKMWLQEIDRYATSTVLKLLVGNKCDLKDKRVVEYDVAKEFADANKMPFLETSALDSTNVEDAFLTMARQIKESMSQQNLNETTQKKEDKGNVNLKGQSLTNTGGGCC
UniProt Q12446: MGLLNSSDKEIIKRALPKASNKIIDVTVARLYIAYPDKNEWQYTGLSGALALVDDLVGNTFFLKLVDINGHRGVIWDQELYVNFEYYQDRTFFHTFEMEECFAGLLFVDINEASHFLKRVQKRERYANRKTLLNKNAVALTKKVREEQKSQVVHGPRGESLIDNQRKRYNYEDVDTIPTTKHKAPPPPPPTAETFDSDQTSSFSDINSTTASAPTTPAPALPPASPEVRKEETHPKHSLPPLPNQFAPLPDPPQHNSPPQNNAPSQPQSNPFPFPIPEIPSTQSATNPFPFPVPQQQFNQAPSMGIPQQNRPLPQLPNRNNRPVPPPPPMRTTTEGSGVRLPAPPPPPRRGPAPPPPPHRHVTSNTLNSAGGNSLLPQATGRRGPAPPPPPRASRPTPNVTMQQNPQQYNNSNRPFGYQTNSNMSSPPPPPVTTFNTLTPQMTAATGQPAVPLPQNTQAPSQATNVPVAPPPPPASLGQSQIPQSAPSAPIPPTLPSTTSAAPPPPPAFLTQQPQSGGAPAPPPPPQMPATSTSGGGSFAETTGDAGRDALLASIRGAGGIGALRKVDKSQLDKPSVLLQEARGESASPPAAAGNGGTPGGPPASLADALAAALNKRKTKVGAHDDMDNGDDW

Assays:
[1] = target: T1, YFP^N-Sec4p (S. cerevisiae) (UniProt P07560); test: split reporter; BiFC competition: overnight P^GAL-LAS17 induction or 6 h P^GAL-SEC4 induction with galactose, compared to glucose medium; number of BiFC particles in living yeast cells
T1 sequence: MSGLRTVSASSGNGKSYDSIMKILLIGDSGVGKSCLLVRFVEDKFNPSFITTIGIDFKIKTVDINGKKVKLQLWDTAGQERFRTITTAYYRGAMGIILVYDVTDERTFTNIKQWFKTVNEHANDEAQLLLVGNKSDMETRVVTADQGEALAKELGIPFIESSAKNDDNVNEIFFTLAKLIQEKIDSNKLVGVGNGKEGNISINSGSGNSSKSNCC

[2] = target: T1, YFP^N-Sec4p (S. cerevisiae); test: split reporter; BiFC: integrated YFP^N and YFP^C (Venus) fusions, haploids mated, widefield fluorescence microscopy of living diploid yeast cells
[3] = target: T2, Sla1p-YFP^C (S. cerevisiae) (UniProt P32790); test: split reporter; BiFC competition: overnight P^GAL-LAS17 induction or 6 h P^GAL-SEC4 induction with galactose, compared to glucose medium; number of BiFC particles in living yeast cells
T2 sequence: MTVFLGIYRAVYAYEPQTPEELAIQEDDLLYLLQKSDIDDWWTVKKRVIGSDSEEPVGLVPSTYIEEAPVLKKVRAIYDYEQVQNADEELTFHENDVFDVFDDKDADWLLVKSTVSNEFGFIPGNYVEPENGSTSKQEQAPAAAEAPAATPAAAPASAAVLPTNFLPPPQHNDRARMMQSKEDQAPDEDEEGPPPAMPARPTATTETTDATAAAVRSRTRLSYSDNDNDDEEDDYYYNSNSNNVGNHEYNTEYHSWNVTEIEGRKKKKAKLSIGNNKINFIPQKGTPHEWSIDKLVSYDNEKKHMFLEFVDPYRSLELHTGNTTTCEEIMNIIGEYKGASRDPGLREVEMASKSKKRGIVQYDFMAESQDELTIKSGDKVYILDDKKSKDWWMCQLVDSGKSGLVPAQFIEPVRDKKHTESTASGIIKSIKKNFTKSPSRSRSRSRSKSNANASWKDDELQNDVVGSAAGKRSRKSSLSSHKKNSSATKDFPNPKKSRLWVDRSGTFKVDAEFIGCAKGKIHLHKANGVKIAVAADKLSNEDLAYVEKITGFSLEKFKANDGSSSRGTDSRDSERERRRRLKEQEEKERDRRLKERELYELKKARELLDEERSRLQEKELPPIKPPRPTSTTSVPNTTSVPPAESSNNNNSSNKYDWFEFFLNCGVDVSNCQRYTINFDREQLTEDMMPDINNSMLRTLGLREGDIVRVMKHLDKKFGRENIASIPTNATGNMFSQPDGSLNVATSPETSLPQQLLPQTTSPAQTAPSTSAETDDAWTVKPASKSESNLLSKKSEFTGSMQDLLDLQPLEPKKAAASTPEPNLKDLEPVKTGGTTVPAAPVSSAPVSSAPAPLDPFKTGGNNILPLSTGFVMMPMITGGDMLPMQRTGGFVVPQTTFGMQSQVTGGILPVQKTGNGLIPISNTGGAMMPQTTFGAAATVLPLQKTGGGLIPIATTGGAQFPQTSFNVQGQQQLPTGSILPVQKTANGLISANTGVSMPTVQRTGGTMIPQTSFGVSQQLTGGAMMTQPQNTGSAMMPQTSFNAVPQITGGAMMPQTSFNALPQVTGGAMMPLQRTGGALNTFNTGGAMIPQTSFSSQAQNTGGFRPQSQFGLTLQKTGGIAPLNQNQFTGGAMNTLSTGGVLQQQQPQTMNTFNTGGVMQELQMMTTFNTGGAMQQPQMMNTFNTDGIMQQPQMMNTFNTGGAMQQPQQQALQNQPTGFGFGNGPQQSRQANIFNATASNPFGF

[4] = target: T2, Sla1p-YFP^C (S. cerevisiae); test: split reporter; BiFC: integrated YFP^N and YFP^C (Venus) fusions, haploids mated, widefield fluorescence microscopy of living diploid yeast cells
[5] = target: GST-Ypt1p (S. cerevisiae) (UniProt P01123); test: pull-down; 1 μg GST fusion immobilized on magnetic glutathione beads, preloaded with 1.5 mM GTPγS; 10 μl in vitro translated ^35S-labeled protein added, 1 h at 23°C; 150 mM Tris pH 7.5, 1.5 mM MgCl2, 250 mM NaCl, 0.5% Triton X-100; SDS-PAGE and autoradiography; only the target purified
[6] = target: T3, glutathione S-transferase (GST)-Sec4p (S. cerevisiae) (UniProt P07560); test: as above
T3 sequence: T1 sequence

[7] = target: GST-Ypt1p (S. cerevisiae) (UniProt P01123); test: pull-down; 1 μg GST fusion immobilized on magnetic glutathione beads, preloaded with 1.5 mM GDP; 10 μl in vitro translated ^35S-labeled protein added, 1 h at 23°C; 150 mM Tris pH 7.5, 1.5 mM MgCl2, 250 mM NaCl, 0.5% Triton X-100; SDS-PAGE and autoradiography; only the target purified
[8] = target: T3, glutathione S-transferase (GST)-Sec4p (S. cerevisiae); test: as above
[9] = target: Las17p-YFP^C (S. cerevisiae) (UniProt Q12446); test: split reporter; BiFC competition: overnight P^GAL-LAS17 induction or 6 h P^GAL-SEC4 induction with galactose, compared to glucose medium; number of BiFC particles in living yeast cells
[10] = target: T3, glutathione S-transferase (GST)-Sec4p (S. cerevisiae); test: pull-down; bacterially expressed GST-Sec4p and in vitro translated Sla1p, 'using the same binding conditions'; nucleotide not stated; only the target purified

binding [1]: binds
binding [3]: binds
Molecule: wild-type Las17p (from UniProt Q12446 1-633)

binding [2]: no binding
B1: Abp1p-YFP^C (protein, UniProt P15891 1-592)
chain: MALEPIDYTTHSREIDAEYLKIVRGSDPDTTWLIISPNAKKEYEPESTGSSFHDFLQLFDETKVQYGLARVSPPGSDVEKIIIIGWCPDSAPLKTRASFAANFAAVANNLFKGYHVQVTARDEDDLDENELLMKISNAAGARYSIQTSSKQQGKASTPPVKKSFTPSKSPAPVSKKEPVKTPSPAPAAKISSRVNDNNDDDDWNEPELKERDFDQAPLKPNQSSYKPIGKIDLQKVIAEEKAKEDPRLVQKPTAAGSKIDPSSDIANLKNESKLKRDSEFNSFLGTTKPPSMTESSLKNDDDKVIKGFRNEKSPAQLWAERKAKQNSGNAETKAEAPKPEVPEDEPEGEPDVKDLKSKFEGLAASEKEEEEMENKFAPPPKKSEPTIISPKPFSKPQEPVKAEEAEQPKTDYKKIGNPLPGMHIEADNEEEPEENDDDWDDDEDEAAQPPLPSRNVASGAPVQKEEPEQEEIAPSLPSRNSIPAPKQEEAPEQAPEEEIEEEAEEAAPQLPSRSSAAPPPPPRRATPEKKPKENPWATAEYDYDAAEDNELTFVENDKIINIEFVDDDWWLGELEKDGSKGLFPSNYVSLGN

binding [10]: no binding
B3: in vitro translated Sla1p (protein, UniProt P32790 1-1244)
chain: T2 sequence

The next lines start with the molecule.

Molecule: Las17p-YFP^C (from UniProt Q12446 1-633)
binding [1]: binds
binding [2]: binds

Molecule: Las17p-YFP^N (from UniProt Q12446 1-633)
binding [3]: binds
binding [4]: binds

Molecule: ^35[S]-labeled Las17p-Myc (from UniProt Q12446 1-633)
binding [5]: no binding
binding [6]: binds
binding [7]: no binding
binding [8]: binds

B2: wild-type Sec4p (protein, UniProt P07560 1-215)
chain: T1 sequence
binding [9]: binds
